B1: DVD1477 (bispecific antibody, human IgG1, kappa)
heavy: QVQLVESGGGVVQPGRSLRLSCAASGFTFSSYDMHWVRQAPGKGLEWVAVIWSDGSIKYYADSVKGRFTISRDNSKNTLYLQMNSLRAEDTAVYYCAREVESAMGGFYYNGMDVWGQGTTVTVSSASTKGPQVQLQESGPGLVKPSETLSLTCTVSGFSLIGYDLNWIRQPPGKGLEWIGIIWGDGTTDYNSAVKSRVTISKDTSKNQFSLKLSSVTAADTAVYYCARGGYWYATSYYFDYWGQGTLVTVSS[human IgG1 constant region left out here]
light: DIQMTQSPSSLSASVGDRVTITCRASQGIRIDLGWYQQKPGKAPKRLIYAASTLQSGVPSRFSGSGSGTEFIFTISSLQPEDFASYYCLQHKSYPLTFGGGTKVEIKRTVAAPSVFIFPPDIQMTQSPSSLSASVGDRVTITCRASQSISNNLNWYQQKPGKAPKLLIYYTSRFHSGVPSRFSGSGSGTDFTFTISSLQPEDIATYYCQQEHTLPYTFGQGTKLEIKRTVAAPSVFIFPPSDEQLKSGTASVVCLLNNFYPREAKVQWKVDNALQSGNSQESVTEQDSKDSTYSLSSTLTLSKADYEKHKVYACEVTHQGLSSPVTKSFNRGEC
notes: DVD-Ig; linker set 2; also called DVD1477H; DVD1477L
B2: DVD1484 (bispecific antibody, human IgG1, kappa)
heavy: EVQLQQSGPELVTPGASVKISCKASGYTFTDHYMSWVKQSHGKSLEWIGDINPYSGETTYNQKFKGTATLTVDKSSSIAYMEIRGLTSEDSAVYYCARDDYDASPFAYWGQGTLVTVSAASTKGPEVQLVESGGGLIQPGGSLRLSCAASGFTVSRNYMSWVRQAPGKGLEWVSVIYSGDRTYYADSVKGRFTISRDNSKNTLYLQMNSLRAEDTAVYYCARGEGGFDYWGQGTLVTVSS[human IgG1 constant region left out here]
light: DVQMIQSPSSLSASLGDIVTMTCQASQGTSINLNWFQQKPGKAPKLLIYGSSNLEDGVPSRFSGSRYGTDFTLTISSLEDEDLATYFCLQHSYLPYTFGGGTKLEIKRTVAAPSVFIFPPEIVMTQSPATLSVSPGERATLSCRASQSVSSNLAWYQQKPGQAPRLLIHGASIRATGLPARFSGSGSGTEFTLTISSLQSEDFAVYYCQQYNYWWTFGQGTKVEIKRTVAAPSVFIFPPSDEQLKSGTASVVCLLNNFYPREAKVQWKVDNALQSGNSQESVTEQDSKDSTYSLSSTLTLSKADYEKHKVYACEVTHQGLSSPVTKSFNRGEC
B3: DVD1486 (bispecific antibody, human IgG1, kappa)
heavy: QVQLQESGPGLVKPSETLSLTCTVSGFSLIGYDLNWIRQPPGKGLEWIGIIWGDGTTDYNSAVKSRVTISKDTSKNQFSLKLSSVTAADTAVYYCARGGYWYATSYYFDYWGQGTLVTVSSASTKGPEVQLVESGGGLIQPGGSLRLSCAASGFTVSRNYMSWVRQAPGKGLEWVSVIYSGDRTYYADSVKGRFTISRDNSKNTLYLQMNSLRAEDTAVYYCARGEGGFDYWGQGTLVTVSS[human IgG1 constant region left out here]
light: DIQMTQSPSSLSASVGDRVTITCRASQSISNNLNWYQQKPGKAPKLLIYYTSRFHSGVPSRFSGSGSGTDFTFTISSLQPEDIATYYCQQEHTLPYTFGQGTKLEIKRTVAAPSVFIFPPEIVMTQSPATLSVSPGERATLSCRASQSVSSNLAWYQQKPGQAPRLLIHGASIRATGLPARFSGSGSGTEFTLTISSLQSEDFAVYYCQQYNYWWTFGQGTKVEIKRTVAAPSVFIFPPSDEQLKSGTASVVCLLNNFYPREAKVQWKVDNALQSGNSQESVTEQDSKDSTYSLSSTLTLSKADYEKHKVYACEVTHQGLSSPVTKSFNRGEC
B4: DVD1501 (bispecific antibody, human IgG1, kappa)
heavy: QVQLKESGPGLVAPSQSLSITCTVSGFSLTDYGVNWVRQPPGKGLEWLGMIWGDGSTDYDSTLKSRLSISKDNSKSQIFLKMNSLQTDDTARYYCAREWHHGPVAYWGQGTLVTVSAASTKGPSVFPLAPQVQLQESGPGLVKPSETLSLTCTVSGFSLIGYDLNWIRQPPGKGLEWIGIIWGDGTTDYNSAVKSRVTISKDTSKNQFSLKLSSVTAADTAVYYCARGGYWYATSYYFDYWGQGTLVTVSS[human IgG1 constant region left out here]
light: DIVMTQSHKFMSTTVGDRVSITCKASQAVSSAVAWYQQKPGQSPKLLIYWASTRHTGVPDRFTGSGSVTDFTLTIHNLQAEDLALYYCQQHYSTPFTFGSGTKLEIKRTVAAPDIQMTQSPSSLSASVGDRVTITCRASQSISNNLNWYQQKPGKAPKLLIYYTSRFHSGVPSRFSGSGSGTDFTFTISSLQPEDIATYYCQQEHTLPYTFGQGTKLEIKRTVAAPSVFIFPPSDEQLKSGTASVVCLLNNFYPREAKVQWKVDNALQSGNSQESVTEQDSKDSTYSLSSTLTLSKADYEKHKVYACEVTHQGLSSPVTKSFNRGEC
B5: DVD1519 (bispecific antibody, human IgG1, kappa)
heavy: QVQLVESGGGVVQPGRSLRLSCAASGFTFSSYDMHWVRQAPGKGLEWVAVIWSDGSIKYYADSVKGRFTISRDNSKNTLYLQMNSLRAEDTAVYYCAREVESAMGGFYYNGMDVWGQGTTVTVSSASTKGPSVFPLAPQVQLQESGPGLVKPSETLSLTCTVSGFSLIGYDLNWIRQPPGKGLEWIGIIWGDGTTDYNSAVKSRVTISKDTSKNQFSLKLSSVTAADTAVYYCARGGYWYATSYYFDYWGQGTLVTVSS[human IgG1 constant region left out here]
light: DIQMTQSPSSLSASVGDRVTITCRASQGIRIDLGWYQQKPGKAPKRLIYAASTLQSGVPSRFSGSGSGTEFIFTISSLQPEDFASYYCLQHKSYPLTFGGGTKVEIKRTVAAPDIQMTQSPSSLSASVGDRVTITCRASQSISNNLNWYQQKPGKAPKLLIYYTSRFHSGVPSRFSGSGSGTDFTFTISSLQPEDIATYYCQQEHTLPYTFGQGTKLEIKRTVAAPSVFIFPPSDEQLKSGTASVVCLLNNFYPREAKVQWKVDNALQSGNSQESVTEQDSKDSTYSLSSTLTLSKADYEKHKVYACEVTHQGLSSPVTKSFNRGEC
notes: DVD-Ig; linker set 3; also called DVD1519H; DVD1519L
B6: DVD1526 (bispecific antibody, human IgG1, kappa)
heavy: EVQLQQSGPELVTPGASVKISCKASGYTFTDHYMSWVKQSHGKSLEWIGDINPYSGETTYNQKFKGTATLTVDKSSSIAYMEIRGLTSEDSAVYYCARDDYDASPFAYWGQGTLVTVSAASTKGPSVFPLAPEVQLVESGGGLIQPGGSLRLSCAASGFTVSRNYMSWVRQAPGKGLEWVSVIYSGDRTYYADSVKGRFTISRDNSKNTLYLQMNSLRAEDTAVYYCARGEGGFDYWGQGTLVTVSS[human IgG1 constant region left out here]
light: DVQMIQSPSSLSASLGDIVTMTCQASQGTSINLNWFQQKPGKAPKLLIYGSSNLEDGVPSRFSGSRYGTDFTLTISSLEDEDLATYFCLQHSYLPYTFGGGTKLEIKRTVAAPEIVMTQSPATLSVSPGERATLSCRASQSVSSNLAWYQQKPGQAPRLLIHGASIRATGLPARFSGSGSGTEFTLTISSLQSEDFAVYYCQQYNYWWTFGQGTKVEIKRTVAAPSVFIFPPSDEQLKSGTASVVCLLNNFYPREAKVQWKVDNALQSGNSQESVTEQDSKDSTYSLSSTLTLSKADYEKHKVYACEVTHQGLSSPVTKSFNRGEC
B7: DVD1528 (bispecific antibody, human IgG1, kappa)
heavy: QVQLQESGPGLVKPSETLSLTCTVSGFSLIGYDLNWIRQPPGKGLEWIGIIWGDGTTDYNSAVKSRVTISKDTSKNQFSLKLSSVTAADTAVYYCARGGYWYATSYYFDYWGQGTLVTVSSASTKGPSVFPLAPEVQLVESGGGLIQPGGSLRLSCAASGFTVSRNYMSWVRQAPGKGLEWVSVIYSGDRTYYADSVKGRFTISRDNSKNTLYLQMNSLRAEDTAVYYCARGEGGFDYWGQGTLVTVSS[human IgG1 constant region left out here]
light: DIQMTQSPSSLSASVGDRVTITCRASQSISNNLNWYQQKPGKAPKLLIYYTSRFHSGVPSRFSGSGSGTDFTFTISSLQPEDIATYYCQQEHTLPYTFGQGTKLEIKRTVAAPEIVMTQSPATLSVSPGERATLSCRASQSVSSNLAWYQQKPGQAPRLLIHGASIRATGLPARFSGSGSGTEFTLTISSLQSEDFAVYYCQQYNYWWTFGQGTKVEIKRTVAAPSVFIFPPSDEQLKSGTASVVCLLNNFYPREAKVQWKVDNALQSGNSQESVTEQDSKDSTYSLSSTLTLSKADYEKHKVYACEVTHQGLSSPVTKSFNRGEC
notes: DVD-Ig; linker set 3; also called DVD1528H; DVD1528L

Biological target: T1, Recombinant Human TNF-α/TNFSF1A (human, UniProt P01375 in part)
Test: cell-based or functional assay

Binder | TNFα Neutralization Assay EC50 (L929 cells) [pM]
B1 | 9
B2 | 219
B3 | 363
B4 | 195
B5 | 7.9
B6 | 59
B7 | 197

Biological target: T2, Recombinant Human β-NGF (human, UniProt P01138 in part)
Test: cell-based or functional assay

Binder | NGF Inhibition Assay EC50 (TF-1 cell proliferation) [pM]
B1 | 38
B3 | 76
B5 | 1950
B7 | 18

Biological target: T2, Recombinant Human β-NGF
T2 sequence (P01138 122-241 limits assumed): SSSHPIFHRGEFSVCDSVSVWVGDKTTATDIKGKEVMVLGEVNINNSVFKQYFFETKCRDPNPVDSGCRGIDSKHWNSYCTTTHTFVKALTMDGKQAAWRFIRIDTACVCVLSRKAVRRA
Test: Biacore SPR
Protocol: (§1) The BIACORE assay (Biacore, Inc, Piscataway, N.J.) determines the affinity of antibodies or DVD-Ig with kinetic measurements of on-rate and off-rate constants. Binding of antibodies or DVD-Ig to a target antigen (for example, a purified recombinant target antigen) is determined by surface plasmon resonance-based measurements with a Biacore® 1000 or 3000 instrument (Biacore® AB, Uppsala, Sweden) using running HBS-EP (10 mM HEPES [pH 7.4], 150 mM NaCl, 3 mM EDTA, and 0.005% surfactant P20) at 25° C. All chemicals are obtained from Biacore® AB (Uppsala, Sweden) or otherwise from a different source as described in the text. For example, approximately 5000 RU of goat anti-mouse IgG, (Fcγ), fragment specific polyclonal antibody (Pierce Biotechnology Inc, Rockford, Ill.) diluted in 10 mM sodium acetate (pH 4.5) is directly immobilized across a CMS research grade biosensor chip using a standard amine coupling kit according to manufacturer's instructions and procedures at 25 μg/ml. Unreacted moieties on the biosensor surface are blocked with ethanolamine. Modified carboxymethyl dextran surface in flowcell 2 and 4 is used as a reaction surface. Unmodified carboxymethyl dextran without goat anti-mouse IgG in flow cell 1 and 3 is used as the reference surface. For kinetic analysis, rate equations derived from the 1:1 Langmuir binding model are fitted simultaneously to association and dissociation phases of all eight injections (using global fit analysis) with the use of Biaevaluation 4.0.1 software. Purified antibodies or DVD-Ig are diluted in HEPES-buffered saline for capture across goat anti-mouse IgG specific reaction surfaces. Antibodies or DVD-Ig to be captured as a ligand (25 μg/ml) are injected over reaction matrices at a flow rate of 5 μl/min. The association and dissociation rate constants, kₒₙ (M⁻¹s⁻) and koff(s⁻¹) are determined under a continuous flow rate of 25 μl/min. Rate constants are derived by making kinetic binding measurements at different antigen concentrations ranging from 10-200 nM. The equilibrium dissociation constant (M) of the reaction between antibodies or DVD-Igs and the target antigen is then calculated from the kinetic rate constants by the following formula: KD=koff/kₒₙ. Binding is recorded as a function of time and kinetic rate constants are calculated.

Binder | Kd [pM] | koff [s⁻¹] | kon [M⁻¹ s⁻¹]
B1 | < 6.3 | < 1e-06 | 160000
B5 | < 10 | < 1e-06 | 110000
B7 | 3 | 7.3e-06 | 2.4e+06

Biological target: T1, Recombinant Human TNF-α/TNFSF1A
T1 sequence (P01375 77-233 limits assumed): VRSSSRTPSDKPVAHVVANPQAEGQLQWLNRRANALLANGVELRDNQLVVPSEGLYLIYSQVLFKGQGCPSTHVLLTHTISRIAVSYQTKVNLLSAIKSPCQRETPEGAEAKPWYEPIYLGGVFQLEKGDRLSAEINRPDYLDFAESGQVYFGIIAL
Test: Biacore SPR
Protocol: as §1

Binder | Kd [pM] | koff [s⁻¹] | kon [M⁻¹ s⁻¹]
B1 | 15 | 3.8e-05 | 2.5e+06
B5 | 20 | 4.2e-05 | 2.1e+06
B7 | 56 | 9.4e-06 | 170000

Reference: patent US20120087858A1 (AbbVie / Abbott, published 2012)
